# Laboratory results published in ChEMBL document CHEMBL5724801, “EUbOPEN Chemogenomics Library - Multiplex” (2024).
# A number of entries come with more than one value. The other results are left out here. The source may hold further records. Results that share an entry are repeated measurements (runs, samples, wells, individuals or studies). Marks such as [2022-09] give the month of the run.
# How the values were obtained:
# Assay type in all cases: toxicity, cell-based
# Fibroblast = test: Multiplex assay against human fibroblast
# Summary of the method: (§1)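 Per cents of healthy-nucleus cells form the tubulin, mitochondrial-mass and membrane-permeability phenotype values. Live cells were stained at seeding with Hoechst33342, BioTracker Green Microtubule Cytoskeleton Dye, MitoTracker Red and Annexin V Alexa Fluor 680. After compound addition they were imaged on a CQ1 microscope at 37°C and 5% CO2, and CellPathfinder machine-learning gating split them into Hoechst high-intensity objects or normal cells, normal cells into healthy, pyknosed or fragmented nuclei, and pyknosed cells into mitotic or apoptotic.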
# HEK-293T = test: Multiplex assay against HEK293T; conditions: human; summary of the method: as §1
# U2OS = test: Multiplex assay against U2OS; conditions: human; summary of the method: as §1
# [1] = 12 h, 1 µM, compound concentration 1 uM
# [2] = 12 h, 10 µM, compound concentration 10 uM
# [3] = 24 h, 1 µM, compound concentration 1 uM
# [4] = 24 h, 10 µM, compound concentration 10 uM
# [5] = 48 h, 1 µM, compound concentration 1 uM
# [6] = 48 h, 10 µM, compound concentration 10 uM
structure (smiles),measurement,setting,value
CCn1c(-c2nc3cc(C(=O)N4CCCC(N)C4)ccc3n2C)cc2ccccc21.Cl (stereo unspecified),Population Apoptotic (%),Fibroblast; [1],"63% and 32% and 6.12%, 22.58% [2024-01]"
same,Population Mitochondria Different-Phenotype (%),Fibroblast; [1],"4% and 17% and 9.28%, 12.12% [2024-01]"
same,Population Apoptotic (%),Fibroblast; [2],"41% and 38% and 10.84%, 28.57% [2024-01]"
same,Population Fragmented Nuclei (%),Fibroblast; [2],"22% and 32% and 5.7%, 7.17% [2024-01]"
same,Population Apoptotic (%),Fibroblast; [3],"50% and 55% and 0%, 29.41% [2024-01]"
same,Population Mitochondria Different-Phenotype (%),Fibroblast; [3],"5% and 20% and 9.3%, 4.12% [2024-01]"
same,Population Apoptotic (%),Fibroblast; [4],"70% and 59% and 20.55%, 54.9% [2024-01]"
same,Population Fragmented Nuclei (%),Fibroblast; [4],"22% and 30% and 5.75%, 5.78% [2024-01]"
same,Population Apoptotic (%),Fibroblast; [5],"66% and 51% and 7.69%, 73.33% [2024-01]"
same,Population Fragmented Nuclei (%),Fibroblast; [5],"23% and 32% and 14.35%, 9.35% [2024-01]"
same,Population Mitochondria Different-Phenotype (%),Fibroblast; [5],"3% and 23% and 16.28%, 4.47% [2024-01]"
same,Population Mitotic Cells (%),Fibroblast; [5],"33% and 48% and 92.31%, 26.67% [2024-01]"
same,Population Tubulin-Different-Phenotype (%),Fibroblast; [5],"29% and 49% and 6.4%, 21.79% [2024-01]"
same,Population Fragmented Nuclei (%),Fibroblast; [6],"19% and 33% and 10.51%, 6.58% [2024-01]"
same,Population Mitotic Cells (%),Fibroblast; [6],"16% and 40% and 63.64%, 23.08% [2024-01]"
same,Population Apoptotic (%),HEK-293T; [1],"54% and 47% and 4.17%, 12.6% [2024-01]"
same,Population Healthy Nuclei (%),HEK-293T; [1],"77% and 81% and 53.95%, 12.58% [2024-01]"
same,Population Pyknosed Nuclei (%),HEK-293T; [1],"13% and 44.21%, 84.11% [2024-01]"
same,Population Tubulin-Different-Phenotype (%),HEK-293T; [1],"33% and 20% and 4.88%, 21.05% [2024-01]"
same,Population Apoptotic (%),HEK-293T; [2],"53% and 13.68%, 30.3% [2024-01]"
same,Population Healthy Nuclei (%),HEK-293T; [2],"74% and 78% and 39.45%, 11.92% [2024-01]"
same,Population Mitochondria Different-Phenotype (%),HEK-293T; [2],"85% and 32.56%, 22.22% [2024-01]"
same,Population Pyknosed Nuclei (%),HEK-293T; [2],"17% and 15% and 58.1%, 87.42% [2024-01]"
same,Population Apoptotic (%),HEK-293T; [3],"35% and 39% and 7.3%, 22.73% [2024-01]"
same,Population Pyknosed Nuclei (%),HEK-293T; [3],"10% and 11% and 27.68%, 71.43% [2024-01]"
same,Total Cell Count,HEK-293T; [3],"459 and 383 and 496, 154 [2024-01]"
same,Population Fragmented Nuclei (%),HEK-293T; [4],"11% and 8% and 2.29%, 0.72% [2024-01]"
same,Population Healthy Nuclei (%),HEK-293T; [4],"70% and 78% and 64.38%, 17.39% [2024-01]"
same,Population Pyknosed Nuclei (%),HEK-293T; [4],"18% and 13% and 33.33%, 81.88% [2024-01]"
same,Total Cell Count,HEK-293T; [4],"449 and 471 and 393, 138 [2024-01]"
same,Population Apoptotic (%),HEK-293T; [5],"20% and 14% and 4.76%, 24.1% [2024-01]"
same,Population Pyknosed Nuclei (%),HEK-293T; [5],"8% and 5% and 11.73%, 42.56% [2024-01]"
same,Population Tubulin-Different-Phenotype (%),HEK-293T; [5],"17% and 11% and 1.75%, 42.86% [2024-01]"
same,Total Cell Count,HEK-293T; [5],"771 and 640 and 1253, 195 [2024-01]"
same,Population Fragmented Nuclei (%),HEK-293T; [6],"14% and 10% and 3.07%, 3.09% [2024-01]"
same,Population Hoechst High Intensity Objects (%),HEK-293T; [6],"15% and 8% and 0.14%, 2.41% [2024-01]"
same,Population Pyknosed Nuclei (%),HEK-293T; [6],"12% and 9% and 19.39%, 36.42% [2024-01]"
same,Population Tubulin-Different-Phenotype (%),HEK-293T; [6],"63% and 15.29%, 81.63% [2024-01]"
same,Total Cell Count,HEK-293T; [6],"605 and 613 and 718, 166 [2024-01]"
same,Population Apoptotic (%),U2OS; [1],"61% and 100% and 38.1%, 30.77% [2024-01]"
same,Population Fragmented Nuclei (%),U2OS; [1],"22% and 18% and 0.93%, 3.17% [2024-01]"
same,Population Mitochondria Different-Phenotype (%),U2OS; [1],"3% and 18% and 1.05%, 12.1% [2024-01]"
same,Population Mitotic Cells (%),U2OS; [1],"38% and 0% and 61.9%, 69.23% [2024-01]"
same,Population Pyknosed Nuclei (%),U2OS; [1],"9% and 3% and 9.81%, 13.76% [2024-01]"
same,Total Cell Count,U2OS; [1],"213 and 90 and 428, 189 [2024-01]"
same,Population Fragmented Nuclei (%),U2OS; [2],"24% and 21% and 2%, 4.85% [2024-01]"
same,Population Membrane Permeable-Phenotype (%),U2OS; [2],"34% and 25% and 1.53%, 9.91% [2024-01]"
same,Population Mitochondria Different-Phenotype (%),U2OS; [2],"29% and 55% and 6.9%, 53.15% [2024-01]"
same,Population Fragmented Nuclei (%),U2OS; [3],"22% and 25% and 1.33%, 2.14% [2024-01]"
same,Population Membrane Permeable-Phenotype (%),U2OS; [3],"6% and 14% and 1.44%, 2.03% [2024-01]"
same,Population Mitochondria Different-Phenotype (%),U2OS; [3],"3% and 13% and 0.9%, 7.11% [2024-01]"
same,Population Mitotic Cells (%),U2OS; [3],"17% and 33% and 64.1%, 62.5% [2024-01]"
same,Population Tubulin-Different-Phenotype (%),U2OS; [3],"3% and 13% and 1.08%, 1.02% [2024-01]"
same,Total Cell Count,U2OS; [3],"249 and 112 and 602, 234 [2024-01]"
same,Population Fragmented Nuclei (%),U2OS; [4],"27% and 19% and 4.23%, 2.81% [2024-01]"
same,Population Membrane Permeable-Phenotype (%),U2OS; [4],"16% and 20% and 1.19%, 3.91% [2024-01]"
same,Population Mitochondria Different-Phenotype (%),U2OS; [4],"34% and 53% and 6.27%, 58.59% [2024-01]"
same,Total Cell Count,U2OS; [4],"288 and 146 and 449, 178 [2024-01]"
same,Population Fragmented Nuclei (%),U2OS; [5],"16% and 22% and 1.68%, 2.29% [2024-01]"
same,Total Cell Count,U2OS; [5],"354 and 145 and 1014, 393 [2024-01]"
same,Population Fragmented Nuclei (%),U2OS; [6],"26% and 18% and 5.29%, 4.45% [2024-01]"
same,Population Membrane Permeable-Phenotype (%),U2OS; [6],"23% and 24% and 1.31%, 3.87% [2024-01]"
same,Population Mitochondria Different-Phenotype (%),U2OS; [6],"22% and 39% and 2.24%, 27.07% [2024-01]"
same,Total Cell Count,U2OS; [6],"353 and 173 and 699, 248 [2024-01]"
CN[C@@H](C)C(=O)N[C@H](C(=O)N1CCC[C@H]1C(=O)Nc1snnc1-c1ccccc1)C1CCCCC1 [GDC-0152],Population Mitochondria Different-Phenotype (%),Fibroblast; [5],1% and 14%
same,Population Mitotic Cells (%),U2OS; [1],39% and 10%
same,Population Mitotic Cells (%),U2OS; [4],31% and 7%
CC(C)c1noc(N2CCC(COc3ccc(-c4ccc(S(C)(=O)=O)cc4)nc3)CC2)n1 [GSK-1292263],Population Fragmented Nuclei (%),Fibroblast; [2],8% and 26%
same,Population Pyknosed Nuclei (%),Fibroblast; [5],6% and 24%
same,Population Mitotic Cells (%),U2OS; [1],27% and 0%
same,Population Mitotic Cells (%),U2OS; [4],7% and 33%
O=S(=O)(c1ccccc1)c1cnc2c(N3CCNCC3)cccc2c1 [INTEPIRDINE],Population Mitotic Cells (%),Fibroblast; [4],60% and 8%
same,Total Cell Count,U2OS; [1],267 and 88
same,Population Mitotic Cells (%),U2OS; [6],22% and 4%
CN1CCN2c3ncccc3Cc3ccccc3C2C1 (stereo unspecified) [MIRTAZAPINE],Population Pyknosed Nuclei (%),Fibroblast; [2],10% and 32%
same,Population Fragmented Nuclei (%),Fibroblast; [3],7% and 26%
same,Population Pyknosed Nuclei (%),Fibroblast; [4],7% and 23%
same,Total Cell Count,U2OS; [1],301 and 81
same,Total Cell Count,U2OS; [2],266 and 83
same,Total Cell Count,U2OS; [3],340 and 99
same,Total Cell Count,U2OS; [5],479 and 132
O=C(O)c1cc2ccccc2c(Cc2c(O)c(C(=O)O)cc3ccccc23)c1O [PAMOIC ACID],Population Fragmented Nuclei (%),Fibroblast; [2],7% and 24%
same,Population Pyknosed Nuclei (%),Fibroblast; [3],4% and 18%
same,Population Fragmented Nuclei (%),Fibroblast; [4],8% and 34%
same,Population Mitotic Cells (%),U2OS; [1],15% and 50%
CC(C)(C)c1ccc(S(=O)(=O)Nc2ccc(Cl)cc2C(=O)c2cc[n+]([O-])cc2)cc1 [VERCIRNON],Population Membrane Permeable-Phenotype (%),Fibroblast; [4],4% and 21%
same,Population Membrane Permeable-Phenotype (%),Fibroblast; [6],1% and 16%
same,Population Membrane Permeable-Phenotype (%),U2OS; [2],3% and 15%
same,Population Tubulin-Different-Phenotype (%),U2OS; [2],1% and 15%
same,Population Membrane Permeable-Phenotype (%),U2OS; [4],1% and 13%
same,Population Tubulin-Different-Phenotype (%),U2OS; [4],1% and 15%
